# In PubChem BioAssay AID485344 (National Center for Advancing Translational Sciences (NCATS), 2010):
# Hit rate of the full screen: of about 340,000 compounds, about 6,900 (2%) were called active. Cut-off read from the data, not from the text of the source: active = inhibition above about 30%; inactive = below that, where a call was filed. The list shows a part of the results, in another mix than the full data. The source gives no active or inactive call for entries shown without one.
# Biological target: D(2) dopamine receptor (Homo sapiens) (UniProt P14416)
# Assay: HTS Assay for Allosteric Antagonists of the Human D2 Dopamine Receptor: Primary Screen for Antagonists; note: 0% is about no effect
# Settings: HEK293 TREx D2 cells, calcium flux, dopamine EC80; at 10 µM; stronger effect = higher value
# In short: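 Antagonism is scored as inhibition of an EC80 dopamine-evoked calcium signal in a force-coupled, tetracycline-inducible HEK293 T-REx D2 line, with compound present 180 s before agonist.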
# UniProt P14416, sequence (P14416 whole entry, looked up): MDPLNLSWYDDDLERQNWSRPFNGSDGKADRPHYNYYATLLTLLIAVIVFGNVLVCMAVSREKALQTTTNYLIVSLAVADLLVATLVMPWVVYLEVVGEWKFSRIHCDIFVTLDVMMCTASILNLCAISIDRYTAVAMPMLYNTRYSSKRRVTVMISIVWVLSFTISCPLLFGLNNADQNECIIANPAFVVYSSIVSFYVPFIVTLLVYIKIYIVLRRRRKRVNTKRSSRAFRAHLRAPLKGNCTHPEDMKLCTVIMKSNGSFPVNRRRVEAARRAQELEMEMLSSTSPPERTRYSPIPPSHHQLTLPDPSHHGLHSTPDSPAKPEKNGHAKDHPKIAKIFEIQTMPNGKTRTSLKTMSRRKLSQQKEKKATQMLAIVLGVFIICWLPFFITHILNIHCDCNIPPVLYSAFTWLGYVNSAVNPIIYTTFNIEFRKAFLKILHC
row,SMILES,inhibition
1,COC(=O)c1ccccc1NC(=O)c1cc(=O)c2ccc(C)c(C)c2o1,13.2%
2,COc1ccc(S(=O)(=O)NCCc2cn3ccsc3n2)cc1,-14.1%
3,CC(=O)c1ccc(NC(=O)c2ccc(CN3C(=O)CCn4nc(C)cc43)cc2)cc1,6.26%
4,O=S(=O)(Nc1ccc(Br)cc1)c1ccc2nc(-c3ccccc3)[nH]c2c1,5.3%
5,Cc1ccc(CCNC(=O)CN2CCN(Cc3ccc(Cl)cc3)C2=O)cc1,4.09%
6,O=C(CCC1N=C2c3ccccc3N=C(SCc3cccc(F)c3)N2C1=O)NCc1ccc(F)cc1 (centres undefined),-24.4%
7,O=C(Nc1ccccc1Br)N1CCN2CCCCC2C1 (centres undefined),-17.4%
8,c1ccc(-c2ccccc2OCCCN2CCCCC2)cc1,active: 43.1%
9,CCc1ccc(NC(=O)Cn2nnc(C(=O)Nc3cc(C)ccc3OC)c2N)cc1,-0.0426%
10,COc1ccccc1CNC(=O)CN1C(=O)CCCc2ccccc21,5.21%
11,CCc1ccc(NC(=O)c2oc3c(c2C)-c2[nH]ncc2CC3)cc1,-17.9%
12,CCc1ccc(NC(=O)c2ccc3c(c2)c(C)c(C)n3Cc2ccccc2)cc1,1.98%
13,CCCCOc1ccc(C2c3c(oc4ccccc4c3=O)C(=O)N2c2nc(C)c(C(=O)OCC)s2)cc1OC (centres undefined),-15.1%
14,CCOC(=O)c1cccc(Nc2cc(C)nc(C)n2)c1,3.08%
15,CCOCCCn1c(=N)c(C(=O)NC2CCCC2)cc2c(=O)n3cccc(C)c3nc21,0.944%
16,Cc1nnc2c3ccccc3nc(N3CCN(c4cccc(Cl)c4)CC3)n12,-7.52%
17,Cc1cccc(-n2ncc3c(Nc4c(C)cc(C)cc4C)ncnc32)c1,-11.1%
18,Cc1noc(Cn2c(=O)c3ccccc3n(CC(=O)Nc3ccccc3C(F)(F)F)c2=O)n1,-5.21%
19,O=C(CCc1ccc(Oc2cc([N+](=O)[O-])cc([N+](=O)[O-])c2)cc1)N1CCCCCC1,active: 37.5%
20,Cc1ccc(NC(=O)CSc2nnc(C)c(=O)[nH]2)cc1,-1.52%
21,CC1=C(c2ccc(Cl)cc2)S(=O)(=O)NC1=NCc1ccc(C)cc1,-17%
22,O=C(CSc1nc2c(oc3ccccc32)c(=O)[nH]1)Nc1cccc(Cl)c1,-6.21%
23,CN(C)c1cccc(C(=O)Nc2ccc(-c3nc4ccccc4s3)cc2)c1,20.2%
24,CCOC(=O)c1cccc(NC(=O)CCNS(=O)(=O)c2cccc3nonc23)c1,-0.121%
25,COc1ccc(OCCCN2CCc3ccccc3C2)cc1,active: 71.9%

row,SMILES,inhibition
1,CCOC(=O)c1ccc(NC(=O)c2cc3c(n(-c4ccc(C)cc4)c2=O)CC(C)(C)CC3=O)cc1,-6.57%
2,Cc1ccc(CCNC(=O)c2ccc(CSCc3ccc(C)cc3)o2)cc1,-1.26%
3,COc1ccc(-c2nc3scc(CCNS(=O)(=O)c4cccc(C(C)=O)c4)n3n2)cc1,-5.77%
4,Cc1cc2ccccc2n1-c1ccc(C(=O)N2CCC(C(=O)NCc3ccc(F)cc3)CC2)s1,12.4%
5,COC(=O)c1c(SCC(=O)Nc2ccccc2OC)[nH]c2ccccc2c1=O,-6.47%
6,COc1ccc(Oc2nc3c(c(=O)n(Cc4ccccc4Cl)c(=O)n3C)n2C)cc1,3.87%
7,COc1ccc(CNC(=O)Cn2ccc3cc(S(=O)(=O)N4CCCCCC4)ccc32)c(OC)c1,-4.51%
8,Cc1ccc(N2CC(NC(=O)/C=C\c3ccc4c(c3)OCO4)CC2=O)cc1 (centres undefined),-9.21%
9,O=C(C1CC1)N1CCc2cc(Br)cc(S(=O)(=O)N3CCN(c4ccccc4F)CC3)c21,10.3%
10,COc1cccc(NC(=O)c2ccc(CNS(=O)(=O)c3ccc4c(c3)C(C)(C)C(=O)N4C)cc2)c1,23.6%
11,Cc1c(Cl)cccc1NC(=O)CSc1cc(-c2ccccc2)ncn1,13.6%
12,Cc1nc(SCC(=O)Nc2ccc(F)cc2)c(C#N)c(C)c1CC(=O)c1ccc(Br)cc1,active: 44.1%
13,Cc1ccc(NC(=O)C2CCN(c3nn4c(=O)cc(C)nc4s3)CC2)cc1,3.99%
14,O=C(/C=C/c1ccco1)Nc1ccc(Cl)c(-c2nc3cc(Cl)ccc3o2)c1,1.02%
15,Cc1ccc(-c2nnc(Nc3ccc(O)cc3)c3ccccc23)cc1S(=O)(=O)NCC1CCCO1 (centres undefined),-2.36%
16,O=C1Nc2cc(Cl)ccc2Oc2cc(Oc3ccccc3)ccc21,-10.1%
17,COc1ccc(Cn2ccc3nc(C)c(C(=O)Nc4ccc(OC)cc4OC)cc3c2=O)cc1,-1.53%
18,Cc1cc(C)c(S(=O)(=O)Nc2cccc(-c3cn4ccccc4n3)c2)c(C)c1,3.79%
19,Cc1ccc(NC(=O)Cn2c(=O)n(CCc3ccccc3)c(=O)c3c4c(sc32)CCCC4)cc1C,-26.9%
20,Cc1ccc(C)c(CN2C(=O)c3ccccc3S(=O)c3ccc(C(=O)NCc4ccco4)cc32)c1 (centres undefined),-3.41%
21,Cc1ccc(NC(=O)Cn2cc(S(=O)(=O)NC(C)C)c(S(=O)(=O)NC(C)C)c2)cc1Cl,-0.55%
22,COc1ccc(N(C(=O)COc2ccc(Br)cc2)S(=O)(=O)c2ccc(C)cc2)cc1,-7.89%
23,Cc1ccc(NC(=O)CCc2c(C)nn(-c3ccc(N4CCOCC4)nn3)c2C)cc1F,15.1%
24,O=C(OCc1ccccc1Cl)c1ccc(-c2nnn(Cc3ccccc3Cl)n2)cc1,-2.63%
